Among all 52,000 compounds or so, about 4,300 (8.3%) were called active. Cut-off read from the data, not from the text of the source: active = survival mostly below about 52% (no sharp cut-off); inactive = mostly above about 56%. The list shows a part of the results.
Each compound was assayed on DeltatarO mutant (assay: S. aureus survival, RN4220 and DeltatarO strains – OD600, teichoic acid synthesis inhibitors, primary screen (AID 463173)). Conditions: S. aureus RN4220 wild type/DeltatarO growth, OD600, 18 h, active compounds read low, screened at 18.75 µg/mL (by protocol).

Structure (SMILES)	survival
COCCNC(=O)c1ccc2nc(Cc3ccccc3)oc2c1	inactive: 92%
CC(C)N(CCCNC(=O)Cn1ncc2c([nH]c3ccccc32)c1=O)Cc1ccccc1	inactive: 102%
CN(C)C(=O)CN(c1ccccc1)S(=O)(=O)c1ccccc1	inactive: 96%
Cc1cc(C)c2c(=O)cc(C(=O)Nc3sc4c(c3C(=O)NCC3CCCO3)CCCC4)oc2c1 (centres undefined)	inactive: 49%
Cc1ccc(Nc2nnc(-c3ccc(C)c(S(=O)(=O)N4CCOCC4)c3)c3ccccc23)cc1	inactive: 75%
CCOc1ccc(CNC(=O)CS(=O)(=O)c2cccc3nsnc23)cc1	inactive: 104%
COc1ccccc1-c1nc(SCC(=O)NCc2ccccc2)c2c(=O)n(C)c(=O)n(C)c2n1	inactive: 80%
O=C(CSC1=NC2CCCCC2N1)N1CCOCC1 (centres undefined)	inactive: 83%
COc1ccccc1-c1noc(-c2ccc(NC3CCCC3)c([N+](=O)[O-])c2)n1	active: 43%
Cc1cc2nc(-c3ccc(NC(=O)c4ccccc4F)cc3)oc2cc1C	inactive: 66%
COc1ccc(OC)c(CNS(=O)(=O)c2ccc(-c3coc(C)n3)cc2)c1	inactive: 79%
CC(=O)c1cc(-c2ccccc2)n(CC(=O)Nc2ccc(C)c(C)c2)c1C	inactive: 86%
CCCC(CCC)C(=O)Nc1ccc(NC(=O)c2ccco2)cc1	inactive: 98%
O=C(c1ccc(F)cc1)c1cn(Cc2ccccc2)c2cc3c(cc2c1=O)OCO3	inactive: 67%
Cc1ccc(C(C(=O)NCC2CCCO2)N(Cc2ccc3c(c2)OCO3)C(=O)c2ccc(-c3ccccc3)[nH]2)o1 (centres undefined)	inactive: 73%
COC(=O)c1ccc(C2Nc3c(C)cccc3-c3cc(C)nn32)cc1 (centres undefined)	inactive: 74%
O=C(Cn1c(=O)oc2cc(S(=O)(=O)NCc3ccccc3)ccc21)Nc1cccc(F)c1	inactive: 78%
COc1ccccc1CNc1nc2c(S(=O)(=O)c3ccc(C)c(C)c3)nnn2c2ccc(Cl)cc12	inactive: 100%
CC(Oc1ccc(/C=C(/C#N)C(=O)N2CCOCC2)cc1)C(=O)O (centres undefined)	inactive: 87%
CCC(=O)c1ccc(N2CCCC2)c(F)c1	inactive: 69%
NC(=O)CC(c1ccccc1)c1ccc2c(c1)OCO2 (centres undefined)	inactive: 97%
COc1ccc(NC(=O)C(NS(=O)(=O)c2cccc3nsnc23)C(C)C)cc1 (centres undefined)	inactive: 86%
COc1ccc(CCNC(=O)C(=O)NCC(c2ccco2)S(=O)(=O)c2ccc(C)cc2)cc1 (centres undefined)	inactive: 134%

Structure (SMILES)	survival
O=C(NCCCc1ccccc1)Nc1c[nH]c2ccccc2c1=O	inactive: 104%
Cc1cccc(CS(=O)(=O)c2ncc(Cl)c(C(=O)Nc3nnc(C(C)C)s3)n2)c1	active: 28%
CC(C)NC(=O)c1ccc(Cn2c(SCc3ccc(F)cc3)nc3cccnc32)cc1	inactive: 55%
O=C(CCn1c(=O)c2cccn2c2cccnc21)N1CCN(c2cccc(C(F)(F)F)c2)CC1	active: 39%
COc1ccc(C2=CC(c3cc(Br)ccc3F)n3c(nc4ccccc43)N2)cc1 (centres undefined)	inactive: 71%
O=C(Nc1c(C(=O)N2CCN(c3ccccc3F)CC2)oc2ccccc12)c1cccc(F)c1	inactive: 92%
Cn1nnc(NC(=O)COc2ccccc2)n1	inactive: 86%
Cc1oc(-c2ccc(C(=O)Nc3ccc(F)cc3)cc2)nc1COc1ccccc1	inactive: 86%
CC1CCCN(c2cc3c(cc2F)c(=O)c(S(=O)(=O)c2cccc(Cl)c2)cn3Cc2ccccc2)C1 (centres undefined)	inactive: 88%
O=C(NCC(=O)N1CCCCC1)c1ccccc1	inactive: 97%
O=C(O)CSCC(=O)Nc1ccccc1C(F)(F)F	inactive: 82%
CC(NCc1ccc(F)cc1)C(=O)NC1CCCCC1 (centres undefined)	inactive: 79%
COCc1nnc(NC(=O)c2cc(OC)c(OC)c(OC)c2)s1	inactive: 73%
COc1ccc(OC)c(/C=C/c2nc3ccccc3c(=O)n2-c2ccc(F)c(Cl)c2)c1	inactive: 95%
Cc1ccc(NC(=O)C2CCCN(S(=O)(=O)c3c(C)n[nH]c3C)C2)c(C)c1 (centres undefined)	inactive: 127%
COc1ccc(C(=O)/C=C/c2cn(CC(O)CN3CCc4ccccc43)c3ccccc23)cc1OC (centres undefined)	inactive: 68%
C=CCC(O)(CC=C)C(C)N (centres undefined)	inactive: 92%
CCOC(=O)C1=C(O)/C(=C\c2sccc2C)N=C1C	inactive: 102%
CCC(C(=O)Nc1cc(C)ccc1C)n1c(=O)c(C(F)(F)F)nc2ccccc21 (centres undefined)	inactive: 102%
O=c1oc2ccccc2cc1-c1nnc(-c2ccncc2)o1	inactive: 73%
N#Cc1ccc(-c2ccc(F)cc2)n(CC(=O)N2CCCC2)c1=O	inactive: 78%
Cc1ccccc1Nc1c(-c2c(F)cccc2Cl)nc2ccc(Br)cn12	inactive: 69%
Cc1c(C(=O)Nc2cccc(C(F)(F)F)c2)sc2nc[nH]c(=O)c12	inactive: 73%

Structure (SMILES)	survival
Cc1ccc(-n2ncc3c(NCCCN4CCOCC4)ncnc32)cc1C	inactive: 83%
CCOC(=O)c1ccc(NC(=O)CCCn2c(=O)c3cccn3c3ccccc32)cc1	inactive: 62%
FC(F)(F)COc1nc(OCC(F)(F)F)nc(OCC(F)(F)F)n1	inactive: 74%
COCC(=O)n1nc(-c2ccco2)nc1NCc1ccccc1Cl	inactive: 82%
Cc1cc(C)n(-c2nc(C)c(C)c(=O)n2CC(=O)Nc2ccc([N+](=O)[O-])cc2)n1	inactive: 77%
COc1ccccc1CNC(=O)CCc1c(C)c2cc3c(C)c(C)oc3cc2oc1=O	inactive: 108%
CCc1nn(CC(=O)NCc2ccco2)c(=O)c2cc3c(OC)cccc3n12	inactive: 77%
C=CCc1cccc2cc(-c3nc4ccc(C)cc4[nH]3)c(=O)oc12	active: 0%
CCOC(=O)c1ccc(NC(=O)Cn2cc(C(=O)C3CC3)c3ccccc32)cc1	inactive: 68%
COc1ccc(CCNC(=O)c2ccc3c(c2)N(Cc2ccc(F)cc2)C(=O)c2ccccc2S3(=O)=O)cc1OC	inactive: 104%
CC(C)(C)C1CCc2c(sc(NC(=O)Cn3nnc(-c4ccccc4Cl)n3)c2C#N)C1 (centres undefined)	inactive: 62%
CCOC(=O)c1c(C)[nH]c(C)c1S(=O)(=O)N1CCC(C(=O)Nc2cc(C)ccn2)CC1	inactive: 76%
Cc1ccc(Cl)cc1N1CCN(C(=O)C2CCC(CNS(=O)(=O)c3cccs3)CC2)CC1 (centres undefined)	inactive: 67%
Cc1cccc(N2CCN(C(=O)CS(=O)(=O)c3cccc4nsnc34)CC2)c1C	inactive: 107%
Cc1ccc(CNc2ccc(-c3nc(-c4ccncc4)no3)cc2[N+](=O)[O-])cc1	active: 39%
CCOc1ccccc1CNC(=O)CCc1c(C)nn(-c2ccc(N3CCCC3)nn2)c1C	inactive: 76%
COc1ccc(OC)c(C(=O)CC2(O)C(=O)N(Cc3ccccc3C)c3ccccc32)c1 (centres undefined)	inactive: 165%
Cc1ccc(/C=C(\C#N)c2nc(-c3ccc(-c4ccccc4)cc3)cs2)cc1	inactive: 57%
CCOC(=O)c1cccc(NC(=O)CCS(=O)(=O)c2ccc3c(c2)CC(=O)N3C)c1	inactive: 102%
Cc1ccc(S(=O)(=O)C2(C(=O)Nc3ccc(Cl)c(C(F)(F)F)c3)CC2)cc1	inactive: 26%
CC(C)c1ccc(NC(=O)Cn2c(=O)n(CC3CCC(C(=O)NCCc4ccccc4)CC3)c(=O)c3ccccc32)cc1 (centres undefined)	inactive: 72%
COC(=O)c1ccc(Cl)cc1NC(=O)NCCc1c(C)nn(C)c1C	inactive: 81%
Cc1c(C(=O)N2CCOCC2)oc2c1-c1nn(CC(=O)NCc3cccc(F)c3)cc1CC2	inactive: 105%

Structure (SMILES)	survival
CCN1C=CC2=C(C#N)C(N)C(C#N)(C#N)C(c3cccs3)C2C1 (centres undefined)	inactive: 97%
COc1ccccc1CNC(=O)Cn1c(=O)nc(-c2ccccc2F)c2cc(Cl)ccc21	inactive: 92%
O=C(Nc1ccccc1C(=O)OCc1cc(=O)n2c3c(sc2n1)CCCC3)c1ccc(F)cc1	inactive: 106%
C=CCc1c(C)[nH]c2ccccc2c1=O	inactive: 98%
COc1ccc(NC(=O)C2CCN(S(=O)(=O)c3ccc4c(c3)CCCC(=O)N4)CC2)cc1OC	inactive: 74%
Cc1cccc(C(C)C)c1NC(=O)Cn1c(=O)oc2cc(S(=O)(=O)N3CCCC3)ccc21	inactive: 85%
CCCn1c(=O)/c(=C2/C=Cc3ccccc3N2C)s/c1=C1\SC(=S)NC1=O	inactive: 80%
COc1ccc(-c2nc(SCC(=O)Nc3ccc4c(c3)OCCO4)c(-c3ccc(F)cc3)[nH]2)cc1	inactive: 91%
CCc1ccc2nc(N(CCN(CC)CC)C(=O)c3cccs3)sc2c1	inactive: 60%
Cc1ccc(-c2nc(S(=O)(=O)c3ccccc3)c(N3CCN(c4ccccc4)CC3)o2)cc1	inactive: 102%
Cc1ccc2nc(COc3ccccc3NC(=O)COc3ccc(F)cc3)cc(=O)n2c1	inactive: 99%
O=C(Nc1ccc(S(=O)(=O)N2CCOCC2)cc1)c1cnccn1	inactive: 60%
COc1ccccc1N1CCN(C(=O)c2cc(CC(C)C)on2)CC1	inactive: 49%
CCc1ccccc1N(CC)C(=O)c1c(C)oc2ncn(C)c(=O)c12	inactive: 79%
O=C1c2oc3ccccc3c(=O)c2C(c2cccc(O)c2)N1c1nncs1 (centres undefined)	inactive: 72%
O=C(Cn1c(=O)nc(-c2ccccc2)c2ccccc21)NCCc1ccccc1	inactive: 94%
C=CCNc1nc(N)c(C(=C(C#N)C#N)c2ccccc2)s1	inactive: 89%
CCOC(=O)c1c(-c2ccc(C)cc2)csc1NC(=O)c1cc(=O)c2cc(C)ccc2o1	active: 42%
CC(=O)c1ccc(NC(=O)CN2C(=O)CN(C)C(=O)c3ccccc32)cc1	inactive: 85%
COc1cccc(CNC(=O)C2=C(C)C(=O)OC23CCN(C(C)=O)CC3)c1OC	inactive: 102%

Reference: PubChem BioAssay AID463173 (ICCB-Longwood Screening Facility, Harvard Medical School, 2010)
